Measured values taken from PubChem BioAssay AID504332 (National Center for Advancing Translational Sciences (NCATS), 2011).
Hit rate of the full screen: of about 350,000 compounds, about 31,000 (8.9%) were called active. Inconclusive results, whose numbers are uncertain, are shown with a selection of clear calls. Calls follow the shape of the dose curve; as a rule, active = well fitted inhibition curve with a large enough effect; inconclusive = small, poorly fitted or top-dose-only effect; inactive = no such curve, though single readings can be large or run the other way. Where the call is inconclusive, the potency comes from a doubtful curve fit.

biological target: Histone-lysine N-methyltransferase EHMT2 (Homo sapiens) (UniProt Q96KQ7); assay: qHTS Assay for Inhibitors of Histone Lysine Methyltransferase G9a; conditions: G9a H3K9 monomethylation, AlphaScreen, 2 h; activity, negative = inhibition: at 59 µM (top of the series) unless noted; also: nearly all actives have a fitted effect of over 75% in size
Chain of UniProt Q96KQ7 (Q96KQ7 whole entry, looked up): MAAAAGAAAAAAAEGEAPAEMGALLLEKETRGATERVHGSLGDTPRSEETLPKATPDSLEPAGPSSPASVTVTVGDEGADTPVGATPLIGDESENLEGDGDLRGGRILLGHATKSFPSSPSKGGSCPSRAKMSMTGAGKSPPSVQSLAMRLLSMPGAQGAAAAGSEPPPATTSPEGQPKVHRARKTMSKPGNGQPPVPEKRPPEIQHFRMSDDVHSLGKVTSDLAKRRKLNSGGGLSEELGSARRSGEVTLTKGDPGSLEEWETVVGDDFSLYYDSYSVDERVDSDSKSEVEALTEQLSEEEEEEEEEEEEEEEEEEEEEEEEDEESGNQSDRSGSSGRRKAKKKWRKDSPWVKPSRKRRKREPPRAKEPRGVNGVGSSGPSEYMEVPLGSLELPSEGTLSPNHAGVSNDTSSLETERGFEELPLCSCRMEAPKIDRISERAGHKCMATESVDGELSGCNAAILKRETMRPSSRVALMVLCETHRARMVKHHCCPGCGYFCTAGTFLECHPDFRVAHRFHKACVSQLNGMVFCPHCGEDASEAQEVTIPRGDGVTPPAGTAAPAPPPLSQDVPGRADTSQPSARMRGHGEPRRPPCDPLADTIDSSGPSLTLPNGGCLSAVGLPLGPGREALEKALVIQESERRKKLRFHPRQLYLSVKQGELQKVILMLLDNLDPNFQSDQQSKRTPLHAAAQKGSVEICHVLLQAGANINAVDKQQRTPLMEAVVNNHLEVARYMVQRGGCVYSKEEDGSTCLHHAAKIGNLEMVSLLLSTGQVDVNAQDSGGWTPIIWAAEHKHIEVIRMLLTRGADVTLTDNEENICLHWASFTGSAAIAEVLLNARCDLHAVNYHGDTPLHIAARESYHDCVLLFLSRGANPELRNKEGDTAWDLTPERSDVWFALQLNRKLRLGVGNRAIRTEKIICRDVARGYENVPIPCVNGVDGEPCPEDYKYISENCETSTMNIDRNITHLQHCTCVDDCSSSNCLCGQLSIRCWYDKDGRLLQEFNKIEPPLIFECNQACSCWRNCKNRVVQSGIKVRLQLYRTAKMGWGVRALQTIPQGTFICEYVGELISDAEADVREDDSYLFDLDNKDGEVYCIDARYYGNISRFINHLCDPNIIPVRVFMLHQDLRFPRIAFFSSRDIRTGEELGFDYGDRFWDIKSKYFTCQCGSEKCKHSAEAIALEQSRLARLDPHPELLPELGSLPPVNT
Outline: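 Signal arises when biotinylated H3K9 peptide, once monomethylated, bridges streptavidin donor and antibody-captured acceptor beads. Enzyme at 20 nM was preincubated 15 min with test compounds; peptide 500 nM and SAM 20 uM then reacted for 2 h.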
% is scaled to controls: 0 for no effect and ±100 for the full control effect; potency is read from the fitted curve at half-maximal effect; tags tell the direction and shape of the fitted curve.

| Compound | Potency | activity, negative = inhibition |
| --- | --- | --- |
| CC(C)NC(=O)CSc1cn(CC(=O)N2CCCCCC2)c2ccccc12 | inactive | – |
| Cc1ccc(-c2nnc3c4ccccc4c(-c4ccccc4)nn23)cc1 | inactive | – |
| CCC1(c2ccc(F)cc2)NC(=O)N(CC(=O)N2CCN(C(=O)c3cccs3)CC2)C1=O (stereo unspecified) | inconclusive: 89.1 µM [inhibitor, partial curve, poor fit] | – |
| Cc1ccc(NCc2cc3cc4c(cc3n(CC(=O)Nc3ccc(C)cc3)c2=O)OCCO4)cc1 | inconclusive: 4.47 µM [inhibitor, partial curve, poor fit] | – |
| Cc1ccnc(NC(=O)c2cc([N+](=O)[O-])cc([N+](=O)[O-])c2)c1 | inconclusive: 39.8 µM [inhibitor, partial curve, poor fit] | – |
| CCCN(CCC)CC(O)Cn1c2ccccc2c2ccccc21 (stereo unspecified) | inconclusive: 89.1 µM [inhibitor, partial curve, poor fit] | – |
| CCOC(=O)c1cnc2ccc(OCC)cc2c1N1CCN(c2ccccc2)CC1 | inconclusive: 35.5 µM [inhibitor, partial curve] | – |
| CCOC(=O)C1=C(C)NC(=O)NC1c1ccc(-c2ccc(Cl)cc2)o1 (stereo unspecified) | inactive | – |
| COc1ccccc1OCc1nc2ccccc2n1Cc1ccccc1 | inactive | – |
| CCC(C(=O)O)N1C(=O)/C(=C/C(C)=C/c2ccccc2)SC1=S (stereo unspecified) | inconclusive: 50.1 µM [inhibitor, partial curve, poor fit] | – |
| Cc1ccc2nsnc2c1S(=O)(=O)Nc1cccc2nsnc12 | active: 44.7 µM | – |
| COc1ccc(C(C(=O)NC2CCCC2)N(C(=O)c2ccco2)c2ccc(OC)c(OC)c2)cc1 (stereo unspecified) | inactive | – |
| CCOC(=O)c1cc(C)n(CC2CCC(C(=O)Nc3cccc(C(C)=O)c3)CC2)c1C (stereo unspecified) | inconclusive: 10 µM [inhibitor, partial curve, poor fit] | – |
| CCOc1ccccc1Oc1ncnc2c1oc1ccccc12 | inactive | – |
| COc1ccc(-n2c(SCc3ccc([N+](=O)[O-])cc3)nnc2-c2ccc(C)cc2)cc1 | inconclusive: 0.794 µM [inhibitor, full curve, poor fit] | – |
| CCc1cc(CNC(=O)CC2C(=O)NCCN2Cc2ccc(-c3ccccc3)cc2)on1 (stereo unspecified) | active: 50.1 µM | – |
| Cc1cc(OCC(O)CN2CCOCC2)cc(C)c1Cl (stereo unspecified) | – | inactive: 18.9% [at 0.501 µM] |
| Cc1ncc(CN2CCC(n3nccc3NC(=O)c3ccccc3)CC2)s1 | inactive | – |
| COc1ccc(CCN2CC(C(=O)N(C)CC(=O)Nc3ccc(Cl)c(C(F)(F)F)c3)CC2=O)cc1OC (stereo unspecified) | inconclusive: 50.1 µM [inhibitor, partial curve, poor fit] | – |
| N=c1n(CC(=O)c2ccc(Br)s2)c2ccccc2n1Cc1ccccc1 | inconclusive: 12.6 µM [inhibitor, partial curve, poor fit] | – |
| COc1ccc(/C=C2\SC(=S)N(CCC(=O)NCCCn3ccnc3)C2=O)cc1 | active: 56.2 µM | – |
| COc1ccc(OC)c([C@@H]2Nc3ccc(C(=O)O)cc3[C@@H]3C=CC[C@@H]32)c1 | inconclusive: 25.1 µM [inhibitor, single point] | – |
| [N-]=[N+]=NC1CC(CO)OC1n1ccc(=O)[nH]c1=O (stereo unspecified) | inactive | – |
| Cc1cccc(C)c1NC(=O)CSc1nnc(C)n1CC1CCCO1 (stereo unspecified) | inactive | – |

| Compound | Potency | activity, negative = inhibition |
| --- | --- | --- |
| CCOc1c(CNCCSc2nnnn2C)cccc1OC | inactive | – |
| Cc1ccc(-c2cc(C(F)(F)F)n3ncc(C(=O)O)c3n2)cc1 | inconclusive: 39.8 µM [inhibitor, single point] | – |
| Cc1ccc(NCCNc2ccc(C)cc2)cc1 | inconclusive: 20 µM [inhibitor, single point] | – |
| CC(C)Cc1nnc(NC(=O)CSc2nc(=O)cc(N)n2-c2ccccc2)s1 | inconclusive: 22.4 µM [inhibitor, partial curve, poor fit] | – |
| Oc1cc(O)c2c(c1)OC(c1ccc(O)c(O)c1)C(O)C2 (stereo unspecified) | active: 2.51 µM | – |
| COc1cc(C(=O)N2CCN(C)CC2)cc(OC)c1OC | inactive | – |
| O=C(NCc1ccncc1)/C(=N/O)c1ccccc1 | inconclusive: 79.4 µM [inhibitor, single point] | – |
| CCn1c(COc2ccc(C(C)C)cc2)nnc1SCC(=O)Nc1nccs1 | active: 10 µM | – |
| Cc1ccc2nc(NC(=O)CCCc3nc4ccccc4s3)sc2c1 | inconclusive: 39.8 µM [inhibitor, single point] | – |
| CC1=CC(C)C2(COC(c3ccc[n+](C)c3)OC2)C(C)C1 (stereo unspecified) | – | inconclusive: -63.2% [inhibitor] [at 0.501 µM] |
| O=C(Nc1ccc(F)c(F)c1)c1cc(S(=O)(=O)N2CCN(c3ccccn3)CC2)ccc1F | inconclusive: 89.1 µM [inhibitor, single point] | – |
| Cc1c(Br)c(=O)oc2c(C)c(O)ccc12 | inactive | – |
| COc1ccc(CNC(=O)C(CC(C)C)NS(=O)(=O)c2ccc3c(c2)oc(=O)n3C)cc1 (stereo unspecified) | inactive | – |
| Cc1ccc(OCCN2CCN(c3nc(NCc4ccco4)c4ccccc4n3)CC2)cc1 | inconclusive: 39.8 µM [inhibitor, single point] | – |
| O=c1c(-c2ccc(F)cc2)nc2cnc(N3CCNCC3)nc2n1C1CC1 | – | inactive: 13% [at 0.501 µM] |
| Cc1nc2ccc(NS(=O)(=O)c3c(F)cc(F)cc3Br)cc2s1 | – | inactive: 16.6% [at 12.7 µM] |
| Cc1ccc(-c2nnc(N3CCCCCC3)c3ccccc23)cc1 | inconclusive: 70.8 µM [inhibitor, partial curve] | – |
| COc1ccc(C2CC(c3ccc(OC)cc3)n3nc(N)nc3N2)cc1 (stereo unspecified) | inconclusive: 28.2 µM [inhibitor, partial curve, poor fit] | – |
| N#Cc1ccc(OCc2nnc(SCC(=O)c3ccccc3)n2-c2ccccc2)cc1 | inconclusive: 39.8 µM [inhibitor, single point] | – |
| COc1cc(C2CC(=O)c3cnc(N4CCN(Cc5ccccc5)CC4)nc3C2)cc(OC)c1OC (stereo unspecified) | – | inconclusive: -83.4% [inhibitor] |
| O=C(COc1ccc2ccccc2c1)Nc1ccc(S(=O)(=O)N2CCCCCC2)cc1 | inconclusive: 39.8 µM [inhibitor, single point] | – |
| COc1ccc(N(CC(=O)N2CCCCC2)S(=O)(=O)c2ccc(OC)c(OC)c2)cc1 | inactive | – |
| O=C(O)c1cc(NC(=O)c2ccc(Cl)c([N+](=O)[O-])c2)cc(C(=O)O)c1 | inconclusive: 89.1 µM [inhibitor, single point] | – |
| CCc1ccc(CNC(=O)c2cccc(-n3c(C)nc4cccnc43)c2)cc1 | inactive | – |

| Compound | Potency | activity, negative = inhibition |
| --- | --- | --- |
| CCCc1ccc(OCc2ccc(C(=O)Nc3ccccc3C(=O)OC)o2)cc1 | inactive | – |
| COc1ccc(COC(=O)C2=C(C)NC(=O)NC2c2ccc(O)cc2)cc1 (stereo unspecified) | inconclusive: 89.1 µM [inhibitor, single point] | – |
| COc1cccc(/C=C/C(=O)O)c1C(C)C | – | inactive: -27.6% [at 2.33 µM] |
| CN1C(=O)Cc2cc(S(=O)(=O)NCc3ccccc3Cl)ccc21 | inactive | – |
| O=C1CN(C(=O)COC(=O)C2CC(=O)N(Cc3ccco3)C2)c2ccccc2N1 (stereo unspecified) | active: 50.1 µM | – |
| O=C(c1cccc(S(=O)(=O)N2CCN(c3ccc(F)cc3)CC2)c1)N1CCCC(C(F)(F)F)C1 (stereo unspecified) | inconclusive: 63.1 µM [inhibitor, partial curve, poor fit] | – |
| CC(=O)Oc1ccc(N2C(=O)CC(N3CCOCC3)C2=O)cc1 (stereo unspecified) | inconclusive: 28.2 µM [inhibitor, single point] | – |
| COc1ccc(OC)c(C2C(C#N)=C(N)Oc3cc(C)[nH]c(=O)c32)c1 (stereo unspecified) | – | inactive: 7.18% [at 2.33 µM] |
| COc1ccccc1NC(=S)N(CCc1c(C)[nH]c2ccccc12)Cc1cccs1 | inconclusive: 31.6 µM [inhibitor, single point] | – |
| O=C(NNc1ncc(C(F)(F)F)cc1Cl)c1ccc(Cl)c(Cl)c1 | inactive | – |
| O=c1[nH]n(Cc2ccccc2)c2ccccc12 | inconclusive: 89.1 µM [inhibitor, single point] | – |
| CN1CCc2nc3sc(C(=O)Nc4ccccc4OC(F)(F)F)c(N)c3cc2C1 | inconclusive: 28.2 µM [inhibitor, partial curve, poor fit] | – |
| O=C(NCc1ccccc1)c1nc(S(=O)(=O)Cc2ccccc2)ncc1Cl | inactive | – |
| CCCCNCCCOc1cccc(Cl)c1Cl | inconclusive: 89.1 µM [inhibitor, single point] | – |
| COc1ccc(C(CCNCc2ccc(F)cc2)c2ccc(F)cc2)cc1 (stereo unspecified) | inconclusive: 0.708 µM [inhibitor, partial curve, poor fit] | – |
| O=C(NCCNC(=O)c1cnccn1)c1ccc(Cl)c(Cl)c1 | inconclusive: 10 µM [inhibitor, partial curve, poor fit] | – |
| Cc1ccc(C)c(OCCCNCc2ccccc2)c1 | inconclusive: 79.4 µM [inhibitor, partial curve, poor fit] | – |
| CC1(C)CC(=O)C(Sc2nnc(-c3ccc(NS(C)(=O)=O)cc3)n2Cc2ccco2)C(=O)C1 | – | inconclusive: -83.4% [inhibitor] |
| Cc1cc(C(=O)CSc2nc3ccccc3n2C)c(C)n1C | inconclusive: 89.1 µM [inhibitor, single point] | – |
| CCCCC(=O)NC(=S)Nc1ccccc1N1CCCCC1 | inactive | – |
| S=C(NCc1ccccc1)NCc1ccco1 | inconclusive: 70.8 µM [inhibitor, single point] | – |
| CCNC(=O)COc1ccc(/C=C2\COc3ccccc3C2=O)cc1OC | active: 39.8 µM | – |
| O=C(Nc1ccccc1)C1=C[C@H](C2CCCCC2)C[C@H](OCc2ccc(CO)cc2)O1 | – | inconclusive: -67.8% [inhibitor] |
